In the supplement of paper PMC3334620:
The full ranking holds about 33,000 sequences; the median of “E-score (-0.5 to 0.5)” is about -0.01, and the highest 2% start at about 0.26. Some of the results follow.

What follows are sequences tested against Ste12 (UniProt P13574) (assay: PBM E-score (8-mer binding enrichment) (E-score (-0.5 to 0.5)); higher = stronger / more preferred TF binding; most listed sequences are background and not binding sites). Details: protein concentration: 200 nM; construct: GST-DNA-binding domain.
Outline: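 GST-tagged yeast TFs (full-length or DNA-binding domain) were made by PURExpress in vitro transcription/translation and applied at about 100-200 nM to universal all-10-mer Agilent arrays. The arrays were made double-stranded by primer extension, on fresh or once-stripped slides. Bound protein was detected with fluorescent anti-GST, and scans were normalised with masliner. Each ungapped eight-base word, pooled with its reverse complement, received an E-score (modified Wilcoxon-Mann-Whitney statistic) from the Universal PBM Analysis Suite.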

Sequence | PBM E-score
CTGCACTC | -0.0811
AGACCCCG | 0.0202
AGAGCCAT | -0.0204
GCCAGTCC | -0.143
AAATTTGG | 0.12
ATAAGCGC | -0.0763
ATGAGTCC | -0.101
CAGTTCCG | 0.0673
CTTGTCGA | -0.0997
ACTGTCCA | -0.231
CCAAGACG | -0.0185
CGTCTAAG | -0.0278
AGCTGGTC | -0.289
AACCTATA | 0.105
CACACAGA | 0.0585
GTTGTCTA | -0.128
ATCGACAG | 0.00964
GGAGTAGA | -0.0759
ACGCGTAT | 0.17
AGCCTAAG | -0.19
TATCGATA | -0.0905
ACCTGGAT | -0.275
CCGGATGA | 0.0123
AAGCGTGA | -0.00615
AGCAAGCC | -0.108

Sequence | PBM E-score
CTCAGCGA | 0.0458
CCTCGACC | 0.0189
ACTCAAAG | 0.123
CCACCCGG | -0.106
AACAAACT | 0.205
CAAACGAA | 0.101
ATGAGGTC | 0.0263
AGTGGTCA | -0.0643
AACAGGTA | -0.0122
AATAGGCC | -0.221
CTAGTGGC | -0.132
AGACAAAC | 0.0684
CGTCGAAC | -0.154
CTTTAATA | 0.209
ACATGCAG | -0.107
CTACCGAG | -0.183
CGGACTAC | 0.0321
CAGCAGGC | 0.126
ACTTAGAG | -0.223
AGCGCAGG | -0.221
CGATCACG | -0.049
CGGCCACG | -0.0396
CGCGAAGC | -0.0448
ACAGTCTC | -0.0284
CAGGATTC | 0.0783

Sequence | PBM E-score
GCACCTTA | -0.0909
TCCGCTCA | -0.00775
ATTGAAAC | 0.398
GGGTTACA | 0.0902
ACGTATTA | 0.25
CACTCGTA | -0.202
GGAATTGA | 0.241
ACTAATGA | 0.155
GAGGGTAC | -0.112
AGGTGATC | 0.0177
ACGTCCAT | -0.15
ATCCTACC | -0.143
CTCGCAGA | -0.118
AGCCGGTG | 0.0856
AAGCATGT | -0.0917
GATAAAGC | -0.0494
CAGCGGTC | -0.0855
ACTTCCGG | 0.0582
ACCTGAAA | 0.257
AAGGGAGC | -0.0506
CCGGATCC | -0.135
CCCAGTCA | -0.15
ATTACTGG | -0.136
ACTATGTG | -0.0623
ACCTGACA | 0.144

Sequence | PBM E-score
GGGTGTAC | -0.123
AGTACATG | 0.0712
GTAGTCGA | -0.148
GACACTGC | -0.0993
CCATAACC | 0.00458
TCGTCGCA | 0.03
GAGCTGCC | -0.218
CGGAAAGA | 0.142
CCAAACTA | 0.0603
AACGAACT | -0.204
AAGGAGCA | -0.017
CACAATCC | 0.05
CTCGACAG | -0.0552
ACTCACGA | -0.213
ATTTTTAG | 0.175
CTGGTGTC | -0.113
AATCTCAT | 0.165
CTAGGGGA | -0.303
CAGTCACA | 0.0168
TATTACAA | 0.173
ACAACGAG | -0.00789
ATGCGGTA | 0.133
CCGTCTGC | -0.147
AAATGTCG | -0.0494
AGCCAAAT | 0.116

Sequence | PBM E-score
AGCCAGGC | -0.18
TAGAACTA | -0.136
CGGCAATA | 0.105
CCTACGTA | -0.121
CTGGATCA | -0.0476
AAATGGCG | 0.0543
CGAATTCA | -0.0287
AGCAACGG | -0.0322
TGATCACA | -0.0662
AGCAATGA | -0.0773
GGAGTTCA | -0.0335
ACGATAGT | 0.0548
CTGGGGGC | -0.233
ATCGGTTG | -0.0931
ATGAGGCG | -0.0853
ACATTACA | 0.142
ACCAGTAA | 0.0343
AAAGGCCA | -0.0459
AGCAACGC | -0.0943
ATAAGAAT | 0.187
ATACGACA | -0.00383
AATTAACC | 0.193
CATAGAGC | -0.14
AATGCACC | -0.0756
CTGGAAGC | -0.222

Sequence | PBM E-score
AAAGCTAT | 0.0353
GAGGTTCC | -0.143
CCTCTTGC | 0.0254
CTGAGGTC | -0.199
CAAGTGAC | -0.0247
CTGGGTTA | -0.0643
ACCCGGTA | 0.0644
TGCTTGAA | 0.103
GAACGCCA | -0.0811
ACTGACTC | -0.0849
GATCCATA | 0.0894
CATTGTGA | -0.046
ACGGAGGA | -0.0906
CCACATTA | 0.0273
CGCGAGTA | 0.136
AACGACGG | 0.0713
CCTCGGGC | -0.045
CTCACCTC | 0.126
CTCCCCCA | -0.00505
CCAGGGGC | -0.229
ATCTGCTG | -0.292
ATATGCGA | 0.11
GCGAACAC | -0.265
TAACTCAA | 0.123
CCTTGCAG | -0.338

Sequence | PBM E-score
GATGACAA | 0.00288
AGGCGCTC | -0.194
GGCCTCAC | -0.128
AAACTGTG | 0.223
CTTTCAGA | 0.211
AAGGCTGC | 0.0866
TGCAGACA | -0.147
AAAAAGTC | 0.219
AACGACAT | 0.189
CAACGAGC | 0.0152
AATCGTGC | 0.0818
GTCCAAAA | 0.123
TGAATCCA | 0.156
CTGAACCA | 0.0857
GACCATGA | 0.0168
CTAGTCGA | -0.0403
ACCAGACA | -0.0629
CAGCTGAG | -0.024
CACTCCAG | -0.019
ACAGCAGC | 0.0783
AGTAGTAT | 0.0811
GGACGTAC | -0.174
